Reference: PubChem BioAssay AID1347417 (National Center for Advancing Translational Sciences (NCATS), 2020)
Screen size: about 120,000 compounds; about 5,300 (4.4%) were called active. The shares of active, inactive and inconclusive entries below differ from those in the screen. Calls come from the whole dose curve; as a rule, active = well fitted inhibition curve with a large enough effect; inconclusive = small, poorly fitted or top-dose-only effect; inactive = no such curve, though single readings can be large or run the other way. Potencies of inconclusive entries are doubtful fits and often do not repeat.

Assay: qHTS Primary assay for Inhibitors of Plasmodium falciparum Dd2 growth in vitro; note: nearly all actives have a fitted effect of over 65% in size
Conditions: P. falciparum Dd2 growth, SYBR Green, 72 h; series mostly up to 28.9 µM
In short: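 Infected erythrocytes (Dd2, 0.3% parasitemia, 2.5% hematocrit final) are added to compound in RPMI-1640/Albumax II medium, grown 72 h at 37C in low oxygen, then lysed with saponin/Triton-X containing SYBR Green and read by fluorescence.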
Potency is the fitted concentration of half-maximal effect; tags give direction and shape of the fitted curve.

Compound	Potency
Cc1cccc(-c2nc3scc(CCNS(=O)(=O)c4ccc(Oc5ccccc5)cc4)n3n2)c1	inconclusive: 17.8 µM [inhibitor, single point]
CC(=O)NC1(C)CCCN(Cc2cc(-c3cccc(C(F)(F)F)c3)cs2)C1 (stereo unspecified)	inconclusive: 31.6 µM [inhibitor, single point]
O=C(Cc1ccc(OC(F)(F)F)cc1)N1CCC(c2n[nH]c(=O)n2-c2ccccc2)CC1	inconclusive: 10 µM [inhibitor, single point]
Cc1ccccc1NC(=O)N1C[C@@H](F)C[C@H]1C(=O)N1CCCCC1	inactive
Oc1ccc(NCCN2CCCC2)cc1	inconclusive: 22.4 µM [inhibitor, single point]
Cc1cccc(CCNc2ncnc3onc(-c4ccc(Cl)cc4)c23)c1	inconclusive: 10 µM [inhibitor, single point]
CC(C)(C)CC(=O)Nc1nc2c(s1)C[C@@H]1[C@](C)(CO)[C@H](O)CC[C@@]1(C)[C@@H]2CC(=O)Nc1cccc(O)c1	inconclusive: 7.94 µM [inhibitor, partial curve, poor fit]
Cc1noc(C)c1[S+](=O)([O-])N1CCCC2(C1)NC(=O)c1ccccc1O2 (stereo unspecified)	inactive
Cc1ccccc1Cn1c2ccccc2c2cnn(CC(=O)NC(C)CCc3ccccc3)c(=O)c21 (stereo unspecified)	inconclusive: 10 µM [inhibitor, single point]
CCOC(=O)c1ccc(N2C(=O)c3n[nH]c(C)c3C2c2ccccc2OC)cc1 (stereo unspecified)	inconclusive: 11.2 µM [inhibitor, single point]
Cc1ccc(C2Cn3nnc(-c4noc(-c5cccnc5)n4)c3CO2)cc1 (stereo unspecified)	inconclusive: 10 µM [inhibitor, partial curve, poor fit]
CN1CCC(C2CCN(S(=O)(=O)c3cc(F)ccc3F)C2)CC1 (stereo unspecified)	inconclusive: 6.31 µM [inhibitor, partial curve, poor fit]
COc1ccc2c(CNCc3cccs3)c(C(=O)O)n(Cc3ccc(C)cc3)c2c1	inactive
COc1ccccc1NC(=O)N1CCC(N2C(=O)C3(CCCCC3)C2c2ccncc2)CC1 (stereo unspecified)	inconclusive: 1.78 µM [inhibitor, partial curve, poor fit]
Cc1ccc2c(c1)c(=O)c1ccccc1n2CCCC(=O)Nc1cc(Cl)ccc1C	inconclusive: 17.8 µM [inhibitor, single point]
CCc1ccccc1S(=O)(=O)N1CCC(n2cnnc2CC)CC1	inactive
O=C(O)C1CCc2nnc(C3CCN(C(=O)c4cccc(Cl)c4)C3)n21 (stereo unspecified)	inactive
Cc1ccc(C)c(N2CCN(C(=O)c3cc(C)nc4c3c(C)nn4-c3cccc(F)c3)CC2)c1	inconclusive: 11.2 µM [inhibitor, single point]
Cc1ccc(C)c(N2CCN(c3ccc4cc(S(=O)(=O)N5CCC(C)CC5)ccc4n3)CC2)c1	inconclusive: 1.12 µM [inhibitor, single point]
O=C(O)C1CN(C(=O)c2ccco2)CCN(C2CCOCC2)C1 (stereo unspecified)	inactive
O=C(c1ccccc1)N1CCC2(CC1)CCN(CCc1ccccc1)c1ccccc1O2	inactive

Compound	Potency
CCOc1ccc(C(=O)NCCc2sc(-c3ccc(OC)c(OC)c3)nc2C)cc1	inconclusive: 20 µM [inhibitor, single point]
CC1(c2cccnc2)N(CC2CC2)C(=O)OC12CCN(C(=O)c1ccc(Oc3ccccc3)cc1)CC2 (stereo unspecified)	inconclusive: 1 µM [inhibitor, partial curve, poor fit]
Cn1cc(C(=O)NCC2CN(C(=O)c3ccccc3)CC23CN(c2ccccc2)C3)cn1 (stereo unspecified)	inactive
COc1ccc(-c2cc(N3CCC(NC(=O)Cc4ccc(F)cc4)CC3)n[nH]2)cc1	inconclusive: 1.41 µM [inhibitor, partial curve, poor fit]
O=C(NCCCN1CCCc2ccccc21)C1Cn2cccc2C(=O)N1Cc1ccccc1 (stereo unspecified)	inconclusive: 1.12 µM [inhibitor, partial curve, poor fit]
O[C@H]1[C@H](NCc2ccc(OC(F)(F)F)cc2)[C@H]2CO[C@H](O2)[C@@H]1N1CCC(Cc2ccccc2)CC1	inconclusive: 0.251 µM [inhibitor, full curve]
Cc1ccc(NC2=C(CC(=O)O)C(c3ccc(F)cc3)N(c3ccc(C)cc3)C2=O)cc1 (stereo unspecified)	inconclusive: 15.8 µM [inhibitor, single point]
COc1ccc(C(=O)N2CC(Oc3ccccc3-c3nc(-c4ccccc4)no3)C2)cc1	active: 0.891 µM
CC(C)c1ccc(NC(=O)c2ccc3c(c2)N(C)C2CCCN2C3=O)cc1 (stereo unspecified)	inactive
CC(C)c1cnc2c(c1SCC(=O)Nc1ccc(OC(F)(F)F)cc1)c(=O)n(C)c(=O)n2C	inconclusive: 8.91 µM [inhibitor, partial curve, poor fit]
CN(C)C(=O)Cc1c[nH]c2ncc(-c3cnn(C)c3)cc12	inconclusive: 39.8 µM [inhibitor, single point]
CCCCn1c(=O)c2oc3ccccc3c2n(Cc2cccc(F)c2)c1=O	inconclusive: 7.94 µM [inhibitor, single point]
C(=C\c1ccccc1)/CN1CCN(Cc2cc3n(n2)CCCNC3)CC1	inconclusive: 11.2 µM [inhibitor, partial curve, poor fit]
CN1Cc2nc(NCCOc3ccccc3)ccc2OCC1=O	inactive
O=c1c2nc(-c3ccc4c(c3)OCO4)ccc2ncn1-c1ccc(F)cc1F	inconclusive: 12.6 µM [inhibitor, partial curve, poor fit]
CCn1ccc(C(=O)N2CCC(c3n[nH]c(=O)n3-c3ccc(C)cc3)CC2)n1	inactive
CCOc1cccc(CN(C)C(=O)CN2CC3(CCN(C)CC3)CC2=O)c1	inactive
COc1ccc(-c2nccc3c(=O)cc(N4CCOCC4)oc23)cn1	inconclusive: 8.91 µM [inhibitor, partial curve, poor fit]
CCC(=O)C1=C(c2ccc(Cl)cc2)N(C(=O)CC)n2c(C)nnc2S1	active: 2.82 µM
CC(C)NC(=O)C1COC2(CCN(C(=O)c3ccc(F)cc3F)CC2)N1C(=O)c1ccccc1 (stereo unspecified)	inactive
